Some of the results follow.

The test addresses T1, OsWOX13 (Oryza sativa, UniProt Q5QMM3 1-267).
T1 sequence: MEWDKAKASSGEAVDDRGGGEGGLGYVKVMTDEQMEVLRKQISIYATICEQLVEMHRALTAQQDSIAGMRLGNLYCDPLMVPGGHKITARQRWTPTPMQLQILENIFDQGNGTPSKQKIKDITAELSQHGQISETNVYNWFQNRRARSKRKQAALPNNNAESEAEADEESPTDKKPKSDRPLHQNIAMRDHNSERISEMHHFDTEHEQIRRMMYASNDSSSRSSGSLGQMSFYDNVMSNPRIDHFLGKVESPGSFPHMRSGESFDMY
As to the kind of experiment: protein-binding microarray (RPBM); PBS, 2% BSA, 51.3 ng/ul salmon testes DNA, 50 uM zinc acetate, 200 nM TF, 25 C, 1 h; high values mean tight binding. To be noted: protein: recombinant; tags: N-terminal polyhistidine and DsRed monomer fusion (pET32a); label: CyDye5-dUTP incorporated in the synthesized complementary strand; 3' TTTTT single-stranded linker to array surface; dsDNA, one strand shown. In a few lines:
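Polyhistidine-tagged DsRed fusions of transcription factors, joined at the N-terminus, were expressed in E. coli BL21-CodonPlus and isolated on Ni–NTA. They were incubated at 200 nM for 1 h at 25 °C on a custom Agilent array, double-stranded and BSA-blocked, in PBS with 2% BSA, salmon testes DNA and 50 µM zinc acetate. The binding signal is per-feature fluorescence intensity (arbitrary units) read on an Axon 4000B scanner after washing.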
“CCCTTAATCGAGATATCACTATCCCAATTTATGTGTGACCCGGAGTCACCTAGTGCAG”: the binding signal was 6000 fluorescence intensity (a.u.).

Turning to “AGCCTTAATTTGTTGGATCATTTCCGATTATTTTATTTATCGGAGTCACCTAGTGCAG”, the binding signal is 12900 fluorescence intensity (a.u.).

For “AATTTGAAAATTCCAAATTTGTGATTGTGCTTCTTGTATGCGGAGTCACCTAGTGCAG”, the binding signal is 5280 fluorescence intensity (a.u.).

“ACTGCTAAATGATGTGTTTTGTGCGAAAACTTTCTATATGCGGAGTCACCTAGTGCAG”: the binding signal is 3640 fluorescence intensity (a.u.).

Take “TCTACTTGCAAGGTGTAATTAGTTACTGATGGATACGTATCGGAGTCACCTAGTGCAG”: the binding signal was 5150 fluorescence intensity (a.u.).

As for “TATGATTTGTCTACGTTACAAACATAAACCTTTTCTTCTCCGGAGTCACCTAGTGCAG”, the binding signal is 11400 fluorescence intensity (a.u.).

As for “CAACAGATTGGGCCCGGCCTATGCCGAATGGGCCCGTCAGCGGAGTCACCTAGTGCAG”, the binding signal is 4460 fluorescence intensity (a.u.).

As for “AATTAAATTAACTTATTAACTAATGGCCTCTTCTTCTTCTCGGAGTCACCTAGTGCAG”, the binding signal is 36000 fluorescence intensity (a.u.).

As for “AGTATGATGGAACTGATCAATGCCTGATCCATCGATATGCCGGAGTCACCTAGTGCAG”, the binding signal is 4760 fluorescence intensity (a.u.).

As for “TCCACTTGGGTGATTAGAATCTGTCTTCCCTGTTTTAAGCCGGAGTCACCTAGTGCAG”, the binding signal was 7670 fluorescence intensity (a.u.).

Consider “CATATAATCAATTGTATCAAGTGATCCAACACACTAGGTCCGGAGTCACCTAGTGCAG”, for which the binding signal was 12800 fluorescence intensity (a.u.).

For “ATTCATCAATCAGTCTGGGCCAGAATGCTTCTAGCTGCGACGGAGTCACCTAGTGCAG”, the binding signal is 18600 fluorescence intensity (a.u.).

Turning to “TGAAATTGATATATGCCTTGACATTTACTATTTTATTTCCCGGAGTCACCTAGTGCAG”, the binding signal is 14800 fluorescence intensity (a.u.).

Consider “GCTTGATTTCAGCTGATATACTCGGTCTTAAAAGACTAGCCGGAGTCACCTAGTGCAG”, for which the binding signal is 23400 fluorescence intensity (a.u.).

Consider “AGTGACATAAATGAAGTGAACCACCCAACCTTCTTGCTCGCGGAGTCACCTAGTGCAG”, for which the binding signal was 6740 fluorescence intensity (a.u.).

Turning to “CTAGTAATAACACTGACATCAATTAGCAATTTAGCATCCGCGGAGTCACCTAGTGCAG”, the binding signal was 13200 fluorescence intensity (a.u.).

For the sequence “ATCGAATGATTGGCGATGATTGGGTTGAGTTCGTTGCAACCGGAGTCACCTAGTGCAG”, the binding signal is 49800 fluorescence intensity (a.u.).

Consider “GTATTTGCATGATTGCTCGATCGAGATTATATTACCCTCTCGGAGTCACCTAGTGCAG”, for which the binding signal was 16800 fluorescence intensity (a.u.).

Regarding “GACAAAATTTAAACTATAGAAGTTGATTTTATTTAGGACGCGGAGTCACCTAGTGCAG”, the binding signal was 5130 fluorescence intensity (a.u.).

Regarding “GAGGGCAAGGCCCAGGGAAGCATATCTTGATAGTCGATATCGGAGTCACCTAGTGCAG”, the binding signal was 65500 fluorescence intensity (a.u.).

For the sequence “ACTTCAATTTATTGCGGATGTGTGCATCTTCCACAGGTATCGGAGTCACCTAGTGCAG”, the binding signal was 6530 fluorescence intensity (a.u.).

With “ATTTAACTGGTAATAAATTTTAATAATTTCAGTCCATAATCGGAGTCACCTAGTGCAG”, the binding signal is 37700 fluorescence intensity (a.u.).

Regarding “TATTATGATTGTTTGTTTAATAATAAATCTAGTAACATCACGGAGTCACCTAGTGCAG”, the binding signal is 21500 fluorescence intensity (a.u.).

As for “TCTAGACTGGACTACCTTGTTTGACTAGCTAGCTACTAAGCGGAGTCACCTAGTGCAG”, the binding signal was 4110 fluorescence intensity (a.u.).

For the sequence “TGAAAATATATTCAATTATTGATTCGATAAAACTAATTTACGGAGTCACCTAGTGCAG”, the binding signal is 6640 fluorescence intensity (a.u.).

For “TTTGATTATTTGATAACTTGACCAACTTTTATTCACTCAGCGGAGTCACCTAGTGCAG”, the binding signal is 39200 fluorescence intensity (a.u.).

As for “ACTTAACTAATTATACGCTAATGACACATCTCACGCCTCCCGGAGTCACCTAGTGCAG”, the binding signal was 45400 fluorescence intensity (a.u.).

Consider “GACAAACTGGTTTGTGTGATTGGTTATCCAGTGACAATCTCGGAGTCACCTAGTGCAG”, for which the binding signal is 42900 fluorescence intensity (a.u.).

“TTTATAAATTATACTTTATTTTATATAAAATGAGCTAATTCGGAGTCACCTAGTGCAG”: the binding signal is 7020 fluorescence intensity (a.u.).

In the case of “ATGAGCTGTAATTAGGAGTCCGATCGTCTCAAGTTAGCGTCGGAGTCACCTAGTGCAG”, the binding signal is 6940 fluorescence intensity (a.u.).

On to “CAATTAATTTGCACTTTAGCTTTATGCAAGCAGTTGCTAGCGGAGTCACCTAGTGCAG”, for which the binding signal was 33500 fluorescence intensity (a.u.).

As for “TAGATAAATTACCCTAAAATCCTGTAAAACTTCTGCATTTCGGAGTCACCTAGTGCAG”, the binding signal was 3350 fluorescence intensity (a.u.).

As to “TTGTAAAATTTAAAATTATGTTGTCGTTTTAATATATTTGCGGAGTCACCTAGTGCAG”, the binding signal was 4270 fluorescence intensity (a.u.).

As to “TAGTGATTTGAAAATACGGGTGCAAACAATGGAGCAACAACGGAGTCACCTAGTGCAG”, the binding signal is 3560 fluorescence intensity (a.u.).

Regarding “AAGTAATTAATACATGGGACCTAATTTATTGGAAGAGAATCGGAGTCACCTAGTGCAG”, the binding signal is 14300 fluorescence intensity (a.u.).

“CGACTATAATTAATCTATAATTAAACTCTAATTATTTTAACGGAGTCACCTAGTGCAG”: the binding signal was 20500 fluorescence intensity (a.u.).

Regarding “ACGATTGATGAAACATATATATCTAAGTTTTAATATATACCGGAGTCACCTAGTGCAG”, the binding signal is 8270 fluorescence intensity (a.u.).

As for “AACTGATTAGCGTCGGGAGCATAGCACATTGGTCGAGTGACGGAGTCACCTAGTGCAG”, the binding signal was 20200 fluorescence intensity (a.u.).

Consider “CAGATTGGAGGAAAACGATTCCCCTCTTTTCCTACCTTCCCGGAGTCACCTAGTGCAG”, for which the binding signal is 14900 fluorescence intensity (a.u.).

For the sequence “CATATATCCACTAATTAATTAATAAACGTTGACCAGTATGCGGAGTCACCTAGTGCAG”, the binding signal is 20200 fluorescence intensity (a.u.).

As for “AGTAAATATGTTTCTAATTAATCGGATTTCAAATATAGCTCGGAGTCACCTAGTGCAG”, the binding signal is 5230 fluorescence intensity (a.u.).

On to “AACAGAGGGACTAATTACCATTTACCAGGTCATGATTTTGCGGAGTCACCTAGTGCAG”, for which the binding signal is 10700 fluorescence intensity (a.u.).

(Values after PMC7819943, “Rice protein-binding microarrays: a tool to detect cis-acting elements near promoter regions in rice”.)
